Hit rate of the full screen: of about 310,000 compounds, about 2,200 (0.71%) showed an effect of 50% or more. Effects have a minus sign here. This is one part of the list.
molecular target: human ether-à-go-go-related gene (hERG) potassium channel (human, UniProt Q12809); test: primary screen, population patch clamp on CHO cells stably expressing hERG
Sequence (Q12809 whole entry, looked up): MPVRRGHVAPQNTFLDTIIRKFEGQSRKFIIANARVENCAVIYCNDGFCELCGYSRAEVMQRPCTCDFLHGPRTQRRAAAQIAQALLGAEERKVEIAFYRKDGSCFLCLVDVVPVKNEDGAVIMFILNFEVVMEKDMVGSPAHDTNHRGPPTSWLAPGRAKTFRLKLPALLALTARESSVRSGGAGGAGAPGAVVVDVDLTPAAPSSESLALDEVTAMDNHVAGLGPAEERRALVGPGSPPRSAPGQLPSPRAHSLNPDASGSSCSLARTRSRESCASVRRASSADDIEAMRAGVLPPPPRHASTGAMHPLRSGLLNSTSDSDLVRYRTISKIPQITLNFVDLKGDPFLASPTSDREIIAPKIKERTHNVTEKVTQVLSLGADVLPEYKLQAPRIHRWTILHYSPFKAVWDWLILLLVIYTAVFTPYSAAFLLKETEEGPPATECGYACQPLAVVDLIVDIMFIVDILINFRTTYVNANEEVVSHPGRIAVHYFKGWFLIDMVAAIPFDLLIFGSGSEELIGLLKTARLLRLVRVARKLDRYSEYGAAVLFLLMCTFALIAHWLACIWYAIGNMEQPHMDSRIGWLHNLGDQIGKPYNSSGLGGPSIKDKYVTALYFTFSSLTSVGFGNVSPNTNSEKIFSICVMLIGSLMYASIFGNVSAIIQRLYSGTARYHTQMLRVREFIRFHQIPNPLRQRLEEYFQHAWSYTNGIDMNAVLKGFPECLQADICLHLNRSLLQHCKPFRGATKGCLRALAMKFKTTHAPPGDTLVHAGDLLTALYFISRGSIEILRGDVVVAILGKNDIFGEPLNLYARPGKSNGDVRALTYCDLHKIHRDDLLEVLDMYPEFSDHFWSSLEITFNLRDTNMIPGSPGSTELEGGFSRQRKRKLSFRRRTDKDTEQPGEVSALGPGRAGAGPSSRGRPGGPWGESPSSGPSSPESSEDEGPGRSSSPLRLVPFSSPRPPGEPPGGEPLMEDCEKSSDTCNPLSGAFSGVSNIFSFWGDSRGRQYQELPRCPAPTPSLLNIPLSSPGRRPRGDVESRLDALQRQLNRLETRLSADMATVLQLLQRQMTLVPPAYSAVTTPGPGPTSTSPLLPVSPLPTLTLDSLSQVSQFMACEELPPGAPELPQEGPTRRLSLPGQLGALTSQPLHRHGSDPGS

Row | Structure (SMILES) | hERG current change (%, negative = inhibition) at 1uM
1 | CC1CCN(C(C)C(=O)Nc2ccccc2-c2ccccc2)CC1.O=C(O)C(=O)O (centres unmarked) | 1.94%
2 | O=[N+]([O-])c1cc(/C=N/N2CCN(C3c4ccccc4-c4ccccc43)CC2)ccc1Cl | -0.218%
3 | CCOC(=O)c1csc(-c2ccc3c(c2)CCO3)n1 | 6.27%
4 | Cc1cccc(-n2cnc3cc(C(=O)N4CCCCC4)ccc32)c1 | 0.334%
5 | CC(OC(=O)C1=NN(c2ccccc2)C(=O)CC1)C(=O)NC1CCCCC1C (centres unmarked) | 3.01%
6 | C=C1SC(=Nc2c(C)cc(C)cc2C)N(C(=O)c2sc3ccccc3c2Cl)C12CCCCC2 | 18%
7 | COc1ccc(NC(=O)C(=O)NCCCn2ccnc2)cc1 | 5.97%
8 | CCCc1cc(=O)oc2c(C)c(OCC(=O)N3CCC(C(=O)O)CC3)ccc12 | 11.1%
9 | CC(=O)Nc1ccccc1NC(=O)C/C(C)=N/NC(=O)C(=O)Nc1cccc(Cl)c1C | 5.98%
10 | COc1c(/C=N/NC(=O)c2ccccc2O)c(CCN(C)C(C)=O)cc2c1OCO2 | 8.13%
11 | CCOC(=O)C1(CCOC)CCN(CC(C)Cc2ccc3c(c2)OCO3)CC1 (centres unmarked) | -12.4%
12 | COc1ccc(CCC(=O)NNC(=S)NCc2ccc(F)cc2)cc1 | 18.5%
13 | CC(C)COC(=O)N1CC(O)CC1C(=O)O (centres unmarked) | 15.9%
14 | N#Cc1cnn2ccn(C3OC(CO)C(O)C3O)c12 (centres unmarked) | 6.32%
15 | O=[N+]([O-])c1cccc(C=Nc2cc3c(cc2Br)OCCO3)c1 | 7.33%
16 | CCOC(=O)C1=C(c2ccccc2)NC(=O)NC1c1ccc(OCC#N)c(OC)c1 (centres unmarked) | 9.08%
17 | O=C(O)c1c(C(=O)N2N=C3/C(=C/c4ccccc4)CCCC3C2c2ccccc2)cccc1[N+](=O)[O-] (centres unmarked) | 5.2%
18 | COc1ccc(-c2cc(C(=O)Nc3cc(C)n(Cc4ccc(Cl)cc4)n3)no2)cc1OC | -4.88%
19 | CCOc1ccc(CN2CCNC(=O)C2CC(=O)N(C)CC2CCOCC2)cc1 (centres unmarked) | 12.7%
20 | Cc1ccc(C(=O)NC(=S)NNC(=O)CCN2CCOCC2)cc1 | 14.8%
21 | O=C(c1ccc(S(=O)(=O)N2CCOCC2)cc1)N1CCN(c2ccccn2)CC1 | 5.3%
22 | Cc1ccc(C(=O)NCC(=O)NC23CC4CC(CC(C4)C2)C3)cc1 | 10.9%
23 | COCCNC(=O)/C(C#N)=C/c1ccc(O)cc1 | 11.7%

Row | Structure (SMILES) | hERG current change (%, negative = inhibition) at 1uM
24 | Cc1nn(C)c(NC(=O)c2ccc(Cl)cc2Cl)c1Br | 8.43%
25 | Cc1c(/C(O)=C2\C(=O)C(=O)N(CCN(C)C)C2c2ccco2)cnn1-c1ccccc1 (centres unmarked) | 7.1%
26 | CN1CCN(C(=O)c2cc([N+](=O)[O-])cc([N+](=O)[O-])c2)CC1 | 17%
27 | Cc1cccc(/C=N/NC(=O)Cc2ccc(Cl)cc2)c1O | 10.1%
28 | COc1ccc(-n2nc(C(=O)NCC(=O)NCc3ccco3)c3ccccc3c2=O)cc1 | -3%
29 | COc1ccc(NC(C)=O)cc1S(=O)(=O)N1CCN(C(=O)c2ccccc2F)CC1 | 6.87%
30 | Cc1nc(N(C)Cc2ccccc2)c2c(C)c(C)sc2n1 | 7.12%
31 | COc1ccc(-n2nc(C(=O)NCC(=O)NCCCN3CCC(C)CC3)c3ccccc3c2=O)cc1Cl | -28.3%
32 | CCOC(=O)C(C)/C(C)=N/NC(N)=S (centres unmarked) | 10.3%
33 | Cc1ccc(S(=O)(=O)Nc2cc3c4c(c2)CC(=O)N4CCC3)cc1 | -6.25%
34 | COc1ccc(C(=O)COC(=O)c2ccc(-n3cnnn3)cc2)c(OC)c1 | 8.62%
35 | O=C(/C=C/c1ccccc1)N1CCN(c2ccccn2)CC1 | -3.17%
36 | O=C(NNC1=C(C(=O)C(F)(F)F)CCC1)c1ccc(Cl)cc1 | 9.2%
37 | CC(C)COC(=O)C(C#N)c1nc2ccccc2nc1N1CCN(Cc2ccc3c(c2)OCO3)CC1 (centres unmarked) | 5.29%
38 | O=C(c1ccccc1)c1ccc2c(c1)OCCCO2 | 9.42%
39 | Nc1nc(Cl)cc(NCCc2ccc(O)cc2)n1 | 16.1%
40 | CCOC(=O)c1c(CN2CCC(C)CC2)n(C)c2cc(Br)c(OC)cc12 | 15.3%
41 | CCOC(=O)C(NC(=O)c1ccccc1F)(Nc1cc(C)on1)C(F)(F)F (centres unmarked) | 15.2%
42 | NC(=S)Cc1ccc(Cl)cc1Cl | 11.2%
43 | COc1ccc(S(=O)(=O)N(C)CC(=O)NCCCn2ccnc2)cc1Cl | 2.85%
44 | COC(=O)c1cc2nc(-c3ccccc3)cc(C)n2n1 | 0.605%
45 | COC(=O)c1cc(S(=O)(=O)Nc2cccc(S(N)(=O)=O)c2)oc1C | 8.79%
46 | Cc1ccc(NC(=O)NN2CCOCC2)cc1 | 12.5%

Row | Structure (SMILES) | hERG current change (%, negative = inhibition) at 1uM
47 | Cc1nnc(SCc2ccc(Cl)cc2Cl)[nH]c1=O | 4.16%
48 | O=C(Nc1ccc([N+](=O)[O-])cc1Cl)c1cc(Cl)ccc1O | 9.94%
49 | Cc1cc(Cl)ccc1OCCCC(N)=O | -0.586%
50 | O=C(Nc1cccc(S(=O)(=O)N2CCCC2)c1)c1ccc2c(c1)OCO2 | 8.01%
51 | CC1(OC(=O)CCc2ccccc2)C(=O)C=C2C=C(C3CC3)OC=C2C1=O (centres unmarked) | 3.31%
52 | Cc1cc(NC(=O)c2ccccc2)sc1C | 10.6%
53 | Cn1c(=O)c2[nH]c(CN3CCN(Cc4ccccc4)CC3)nc2n(C)c1=O | -2.76%
54 | O=C(C1=C[C@H](c2coc3ccccc3c2=O)C[C@H](OCCCCO)O1)N1CCN(Cc2ccccc2)CC1 | -16%
55 | Cc1ccc(C(=O)NCCCn2ccnc2)cc1[N+](=O)[O-] | 11.9%
56 | CCOC(=O)C1(CCc2ccccc2)CCN(Cc2cccc3nccnc23)CC1 | -19.3%
57 | COc1ccccc1C(=O)COC(=O)c1nc2nc(C)cc(C)n2n1 | 10.8%
58 | Fc1cccc(Cl)c1CSC1=NCCS1 | 7.49%
59 | CC1(C)CC(=O)C(C=NCc2cccnc2)=C(O)C1 | -10.7%
60 | Nc1nc[nH]c(=O)c1N=Cc1ccccc1 | 24.7%
61 | COc1ccc(CCN(C)C(=O)C2CCCN(Cc3ccc(OC)c(OC)c3)C2)cc1OC (centres unmarked) | 17.4%
62 | CCC(C(=O)O)n1nnc(-c2ccc(-c3ccc(OC)cc3)cc2)n1 (centres unmarked) | 12.9%
63 | O=C(COC(=O)Cc1ccsc1)Nc1ccc(F)cc1Cl | 14%
64 | COc1ccccc1C(=O)NNC(=O)CCCN1C(=O)/C(=C/c2cccs2)SC1=S | 11.3%
65 | c1ccc(-c2cc(N3CCCCC3)ncn2)cc1 | 3.46%
66 | COc1ccc(CNS(=O)(=O)CCNC(=O)c2ccccc2)cc1 | 11%
67 | COc1ccc(C)cc1NC(=O)C(=O)N/N=C(\C)CC(=O)Nc1cccnc1 | 8.81%
68 | Cc1cc(C)cc(C(=O)N2CCCCCC2)c1 | 6.73%
69 | O=C(C1CCC(=O)N1Cc1ccccc1Cl)N1CCN(c2ccc(F)cc2)CC1 (centres unmarked) | -30.5%

Row | Structure (SMILES) | hERG current change (%, negative = inhibition) at 1uM
70 | O=C(NC1C2CCCC1CN(C1CC1)C2)c1ccc(Cl)cc1 (centres unmarked) | 9.5%
71 | Cc1cc(C)c2sc(N(CCCN(C)C)C(=O)c3ccc(S(=O)(=O)N4CCc5ccccc5C4)cc3)nc2c1.Cl | 13%
72 | O=C(c1ccc(S(=O)(=O)Nc2ccccc2)cc1)N1CCCC1 | 12.5%
73 | Cc1ccc(CN2C(=O)CN=C(c3ccccc3)c3ccccc32)cc1 | 2.73%
74 | COc1ccc(NC(=O)Cc2c(SC)c3ccccc3n2Cc2ccccc2)cc1 | 6.02%
75 | O=C(O)c1ccc(N2CCN(Cc3ccc4c(c3)OCO4)CC2)c([N+](=O)[O-])c1 | 14.8%
76 | Cc1ccccc1NC(=O)NNC(=O)c1ccc2ccccc2c1O | 9.39%
77 | C/C(=N\NC(=O)C(=O)Nc1c(C)n(C)n(-c2ccccc2)c1=O)c1ccc(Cl)s1 | 5.11%
78 | CC(C)C(NC(N)=O)C(=O)NC1CCCCC1 (centres unmarked) | 11%
79 | Cc1cc(C)c2cc(C#N)c(NCCOC(=O)c3ccccc3C)nc2c1 | -20.7%
80 | Cc1nn(-c2ccccc2)c2nc(N)c(C#N)c(-c3ccc(C(C)(C)C)cc3)c12 | 11%
81 | COc1ccccc1C(=O)Nc1nnc(CCc2ccccc2)s1 | 7.37%
82 | COc1cc(CN2CC(=O)N(c3ccc(C)c(C)c3)C2=S)cc(OC)c1OC | 8.19%
83 | CCOC(=O)C(C)Oc1ccc2c(C)cc(=O)oc2c1C(C)=O (centres unmarked) | -7.98%
84 | CCCCNc1cc(C)nc(NCc2ccccc2)n1 | -11.9%
85 | Cc1ccc(C(=O)/C=C/c2cn(CN3CCN(C)CC3)c3ccccc23)cc1 | 1.06%
86 | O=[N+]([O-])c1cccc(NC(=S)N2CCc3ccccc3C2)c1 | 11.1%
87 | Cc1cc(NC(=O)c2cc3n(n2)C(C(F)(F)F)CC(c2ccc(Cl)c(Cl)c2)N3)no1 (centres unmarked) | 3.54%
88 | Cc1c(Cl)c(C(=O)NC2C3CC4CC(C3)CC2C4)nn1C (centres unmarked) | 17.5%
89 | O=c1cccc2n1CC1CC2CN(S(=O)(=O)c2ccc(F)cc2)C1 (centres unmarked) | 10.6%

— publication PMC4336329 (PLoS ONE, 2015)
